The text below walks through data of the supplement of paper PMC8728848.

Test in all cases: glycan array binding signal (z-score within array); higher = stronger binding
Holding throughout (conditions): glycan notation: IUPAC condensed, linker removed

Assay [1] concerns Fuc(a1-2)Gal(b1-4)[Fuc(a1-3)]GlcNAc(b1-2)Man(a1-3)[Fuc(a1-2)Gal(b1-4)[Fuc(a1-3)]GlcNAc(b1-2)Man(a1-6)]Man(b1-4)GlcNAc(b1-4)GlcNAc. In short, it runs like this:
(§1)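 Columns mapping to the same glycan were averaged after glycan names were converted to IUPAC-condensed notation. The data come from 3228 arrays in the Consortium for Functional Glycomics database, limited to those with an available protein sequence. Binding is reported as a within-array Z-score averaged across arrays of one protein sequence and across linkers.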

For assay [2], the system named is Fuc(a1-2)Gal(b1-4)[Fuc(a1-3)]GlcNAc(b1-3)GalNAc. The method in brief:
as §1

Assay [3] relates to Fuc(a1-2)Gal(b1-4)[Fuc(a1-3)]GlcNAc(b1-3)Gal(b1-4)[Fuc(a1-3)]GlcNAc(b1-3)Gal(b1-4)[Fuc(a1-3)]GlcNAc. The method in brief:
as §1

Assay [4] deals with Fuc(a1-2)Gal(b1-4)[Fuc(a1-3)]GalNAc(b1-3)Gal(b1-4)[Fuc(a1-3)]GlcNAc. The method in brief:
as §1

For assay [5], the system named is Fuc(a1-2)Gal(b1-4)[Fuc(a1-3)]GalNAc(b1-3)Gal(b1-4)[Fuc(a1-3)]GlcNAc(b1-3)Gal(b1-4)[Fuc(a1-3)]GalNAc. In short, it runs like this:
as §1

The subject of assay [6] is Fuc(a1-2)Gal(b1-4)[Fuc(a1-3)]GlcNAc. In short, it runs like this:
as §1

In assay [7] the test system is Fuc(a1-2)Gal6S(b1-3)GlcNAc6S. The method in brief:
as §1

In assay [8] the test system is Fuc(a1-2)Gal6S(b1-4)GlcNAc. The method in brief: as §1
Assay [9] has as its system Fuc(a1-2)Gal6S(b1-3)GlcNAc. In short, it runs like this:
as §1

Assay [10] has as its system Fuc(a1-2)Gal(b1-4)[Fuc(a1-3)]GlcNAc(b1-3)Gal(b1-4)[Fuc(a1-3)]GlcNAc. In short, it runs like this:
as §1

The sample as a whole holds a higher share of the strongest signals than the screen did.

“NCAM1 (Homo sapiens) (chain not printed)”: the “glycan array binding signal (z-score)” value in assay [1] was 5.38; in assay [2] it was 8.58.

Consider “Siglec-2 (Homo sapiens) (chain not printed)”, for which the “glycan array binding signal (z-score)” value in assay [1] is 1.36; in assay [3] it was -0.216.

On to “Angiogenin (Homo sapiens) (chain not printed)”, for which the “glycan array binding signal (z-score)” value in [4] was -1.06.

As to “L-Ficolin (Homo sapiens) (chain not printed)”, the “glycan array binding signal (z-score)” value in assay [5] is -0.716; in assay [6], -0.538.

Take FGF2 (chain not printed): the “glycan array binding signal (z-score)” value in assay [2] was 2.44; in [6] it was -0.305; in assay [7], 2.17.

As for “H-Ficolin (Homo sapiens) (chain not printed)”, the “glycan array binding signal (z-score)” value in assay [8] amounted to 0.103.

Turning to “Serum Amyloid P component (Homo sapiens) (chain not printed)”, the “glycan array binding signal (z-score)” value in assay [5] was -0.612.

As to “Thrombomodulin Extracellular (Homo sapiens) (chain not printed)”, the “glycan array binding signal (z-score)” value in [9] was -0.049.

For “CLEC-2 (Homo sapiens) (chain not printed)”, the “glycan array binding signal (z-score)” value is 1.87 in assay [1] and 0.215 in assay [8].

“Meso764 (Homo sapiens) (chain not printed)”: the “glycan array binding signal (z-score)” value in assay [10] is 0.068; in assay [9], -0.318.
